In all, about 48,000 compounds went through this assay and about 1,200 (2.5%) were called active. Another 2% or so got no clear call; they are omitted.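 The calls were made as follows: active = activation of at least 60% and not above a set upper limit (about 1 call in 100 departs from these limits); inconclusive = activation of 40% to 60%, or above that upper limit; inactive = activation under 40%.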 The list shows a part of the results.

UniProt O75388, sequence (O75388 whole entry, looked up, the tested form may be a part): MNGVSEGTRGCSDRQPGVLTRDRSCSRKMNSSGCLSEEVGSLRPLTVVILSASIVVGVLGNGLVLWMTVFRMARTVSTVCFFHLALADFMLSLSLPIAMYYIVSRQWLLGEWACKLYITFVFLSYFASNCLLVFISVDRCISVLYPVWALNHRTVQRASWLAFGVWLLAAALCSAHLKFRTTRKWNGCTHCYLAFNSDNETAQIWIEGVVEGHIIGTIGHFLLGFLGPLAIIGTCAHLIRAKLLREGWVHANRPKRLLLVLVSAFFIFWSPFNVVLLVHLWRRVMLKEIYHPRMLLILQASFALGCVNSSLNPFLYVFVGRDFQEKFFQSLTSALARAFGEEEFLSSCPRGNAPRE

This assay concerns the target Probable G-protein coupled receptor 32 (Homo sapiens) (UniProt O75388). Description: qHTS for Agonists of Human Resolvin D1 Receptor DRV1. Also: 0% is about no effect. The note with it: CHO-K1 GPR32 beta-arrestin PathHunter luminescence, 90 min; at 76.9 µM; active compounds read high; zero percent set by DMSO-only wells. A digest of the protocol:
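Agonism was scored by beta-Gal fragment complementation (chemiluminescent read, 1 h detection at ambient temperature) reporting beta-arrestin binding to GPR32 in engineered CHO-K1 cells. Compound treatment lasted 90 min at 37 C, normalized to a DMSO basal control.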
A general note: qHTS replaces the single test concentration by a dilution series.
As to `Cc1cc(C)c(NC(=O)C2CCN(S(=O)(=O)c3c(C)noc3/C=C/c3ccccc3F)CC2)c(C)c1`, the activation is inactive: -6.45%. Turning to `CCOc1ccc(NC(=O)N(Cc2cn(CC)c3ccccc23)C2CCCCCC2)cc1`, the activation was inactive: -25.8%. In the case of `CN(C)c1ccc(C(CNC(=O)c2ccccc2Cl)N2CCCC2)cc1` (stereo not drawn) it was inactive: -7.21%. `CN1C(=O)Cc2cc(S(=O)(=O)NCc3ccc(Cl)cc3)ccc21`: the activation was inactive: -24.5%. In the case of `Cc1nnsc1C(=O)Oc1ccc(Cl)cc1`, the activation is inactive: 15.2%. On to `COc1ccc(N2CCN(CCCNC(=O)c3cnn(-c4ccc(C)cc4)c3-n3cccc3)CC2)cc1`, for which the activation was inactive: -12.2%. In the case of `O=C(NCc1ccccc1)C(=O)NCC(c1cccs1)S(=O)(=O)c1cccs1` (stereo not drawn) it was inactive: -30.7%; in that of `O=C(CSc1nc2c([nH]c3ccccc32)c(=O)n1-c1cccc(Cl)c1)c1ccccc1`, inactive: 15%; in that of `CCC(Sc1nnc2c(n1)[nH]c1ccccc12)C(=O)Nc1ccccc1OC` (stereo not drawn), inactive: -6.96%. Take `CCc1ccccc1S(=O)(=O)Cc1ccc(C(=O)NCCc2ccc(C)cc2)o1`: the activation was inactive: 31.4%. Then `Cc1cc(C)cc(C(=O)NCCc2csc(-c3ccc(C(F)(F)F)cc3)n2)c1`, with inactive: -18.9%; and `CCc1ccccc1NC(=O)CSc1ncc2c(n1)-c1cc(Cl)ccc1N(Cc1ccccc1)S2(=O)=O`, with inactive: 2.24%; and `COc1cccc(N2CCN(C3=NS(=O)(=O)C(c4ccc(C)cc4)=C3C)CC2)c1`, with inactive: 1.56%. Regarding `Cc1ccc(Cn2c(=O)n(CCCCC(=O)NCc3ccc4c(c3)OCO4)c(=O)c3ccccc32)cc1`, the activation is inactive: -7.33%. In the case of `COc1ccc(NC(=O)c2ncn(-c3ccccc3)n2)cc1Cl`, the activation was inactive: 21.7%.

With `CCc1ccc(-n2nc(C)c3c(C)cc(=O)n(CC(=O)Nc4cc(C)ccc4C)c32)cc1`, the activation is inactive: 1.05%. Take `Cc1c(C(=O)OCC2CCCCC2)[nH]c2c1C(=O)CC(c1ccccc1Cl)C2` (stereo not drawn): the activation was inactive: 4.16%. For the compound `COc1ccc(CCNC(=O)CCc2c(C)nc3c4cccnc4nn3c2C)cc1OC`, the activation is inactive: -5.27%. On to `CCCCn1cc(S(=O)(=O)c2ccc(OC)cc2)c(=O)c2cc(F)c(N3CCOCC3)cc21`, for which the activation was inactive: -16.5%. With `COc1ccccc1NC(=O)N1CCN(Cc2nc3ccc(C)cc3o2)CC1`, the activation was inactive: -34.4%. Take `CC(=O)Nc1c(C)nn(-c2ccccc2)c1N1CCC(C(=O)Nc2cc(F)ccc2F)CC1`: the activation was inactive: -5.95%.

With `Cc1ccc(N2C(=O)c3n[nH]c(C)c3C2c2ccccc2Cl)cc1` (stereo not drawn), the activation was inactive: 31.2%. In the case of `Cc1cc(C)c(NC(=O)Cn2c(=O)n(CC3CCCO3)c(=O)c3ccccc32)c(C)c1` (stereo not drawn) it was inactive: -1.46%. Take `Cn1cc(S(=O)(=O)N2CCCC2)cc1C(=O)N1CCN(c2cccc(Cl)c2)CC1`: the activation was inactive: -21.8%.

Consider `COc1cccc(NC(=O)N(CCC(C)C)C2CCN(C(C)C)CC2)c1`, for which the activation is inactive: -5.29%. As to `Cc1ccccc1OCC(=O)Nc1ccc(-c2nc3cc(Cl)cc(Cl)c3o2)cc1`, the activation is inactive: -9.76%.

For `CCCSc1ncc(Cl)c(C(=O)N(Cc2ccccc2)c2ccc(OC)cc2)n1`, the activation is inactive: -25.1%. Turning to `Cc1ccc(CNC(=O)C2CCN(S(=O)(=O)c3ccc4nc5c(c(C(=O)O)c4c3)CC(C)CC5)CC2)cc1` (stereo not drawn), the activation was inactive: -10.4%. On to `CCc1cnc2c(c1SCC(=O)NCc1ccc(C)cc1)c(=O)n(C)c(=O)n2C`, for which the activation is inactive: -2.13%. Consider `C[C@@H](N)C(=O)O`, for which the activation is inactive: -21.4%.

Consider `CC(=O)c1ccc(NS(=O)(=O)c2ccc(Br)s2)cc1`, for which the activation is inactive: 47.9%.

For `Cn1ccc2c(OCC(=O)Nc3ccc(OC(F)(F)F)cc3)cccc2c1=O`, the activation was inactive: 35.6%. As to `CCn1cc(C(=O)N2CCN(c3cc(Cl)ccc3C)CC2)c(=O)c2cc(S(=O)(=O)N3CCCC3)ccc21`, the activation is inactive: -4.63%. Take `COc1cc(Cl)c(C)cc1NC(=O)c1cc2c(=O)oc3ccccc3c2s1`: the activation is inactive: -15.8%.

As to `CCOc1ccc(C(=O)OCc2cc(=O)n3nc(C4CC4)sc3n2)cc1`, the activation was inactive: 18.9%. For `CC(C)(C)C1CCc2c(sc(NC(=O)c3ccco3)c2C(=O)Nc2ccccc2Cl)C1` (stereo not drawn), the activation is inactive: 13.1%.

Turning to `COc1cc2nc(SCC(=O)Nc3ccccc3C)n3nc(CCn4c(C)nc5ccccc54)nc3c2cc1OC`, the activation was inactive: -0.929%. For `CCOC(=O)CSc1nc2ccc(NC(=O)COc3ccc(F)cc3)cc2s1`, the activation was inactive: 16.8%. In the case of `Cc1cccc2sc(N(Cc3cccnc3)C(=O)CCOc3ccccc3)nc12` it was inactive: -38.1%. On to `CCOC(=O)c1ccc(N2CCN(c3ccccc3OC)CC2)c(NC(=O)Nc2ccc(CC)cc2)c1`, for which the activation is inactive: -30.7%. Turning to `CCOCCCNC(=O)c1cn(CC)c2ccc(S(=O)(=O)N3CCOCC3)cc2c1=O`, the activation is inactive: -3.94%. As for `Cc1cc(C(=O)N2CCN(c3cccc(Cl)c3)CC2)c2c(C)nn(-c3ccccc3Cl)c2n1`, the activation is inactive: -0.675%. `COc1ccc(CNC(=O)C2=CC(c3ccc(OC)c(OC)c3)=NS(=O)(=O)N2C)cc1`: the activation is inactive: -11.1%. In the case of `O=C(COc1ccc(Cl)cc1)Nc1ccc2nc(SCC(=O)N3CCOCC3)sc2c1`, the activation was inactive: 16.2%.

`CCOc1ccc(S(=O)(=O)NCc2ccc3c(c2)CCN3C(=O)c2ccc(C)cc2)cc1`: the activation is inactive: -17.2%. Then `Cc1ccc(NCc2cc3cc4c(cc3n(CC(=O)Nc3ccc(F)cc3F)c2=O)OCCO4)cc1`, with inactive: -3.72%. Regarding `COc1ccc(S(=O)(=O)Nc2cc(-c3cn4ccc(C)cc4n3)ccc2C)cc1OC`, the activation is inactive: -5.23%.

Consider `Cc1nnc2c3ccccc3nc(Nc3ccccc3C(=O)O)n12`, for which the activation is inactive: 9.32%. On to `CCn1ccc2cc(S(=O)(=O)N3CCC(C(=O)NCC(C)c4ccccc4)CC3)ccc21` (stereo not drawn), for which the activation was inactive: 28.3%. Turning to `Cc1ccc(NC(=O)CSc2nc3ccccc3nc2Cc2ccccc2)c(Cl)c1`, the activation is inactive: -1.25%.

As for `Cc1ccc(Cl)cc1NC(=O)c1nnn(Cc2ccccc2)c1N`, the activation is inactive: 21.3%.

In the case of `Cc1ccc(-n2ncc(C(=O)NCc3ccccn3)c2C2CCN(C(=O)OC(C)(C)C)CC2)cc1C`, the activation was inactive: -21.3%.

For `COc1cccc(CNC(=O)C2CCN(Cc3cc4ccccc4n3Cc3ccccc3)CC2)c1OC`, the activation is inactive: -6.09%.

The values are drawn from PubChem BioAssay AID1346428 (National Center for Advancing Translational Sciences (NCATS), 2018).
